# Test results: a collection of fitness landscapes (doi:10.1126/science.1257360)
# The other results are listed elsewhere or left out.
# B1: PhoQ; a variant is named by its letters at X, in order, P23837 (parent)
# chain: MKKLLRLFFPLSLRVRFLLATAAVVLVLSLAYGMVALIGYSVSFDKTTFRLLRGESNLFYTLAKWENNKLHVELPENIDKQSPTMTLIYDENGQLLWAQRDVPWLMKMIQPDWLKSNGFHEIEADVNDTSLLLSGDHSIQQQLQEVREDDDDAEMTHSVAVNVYPATSRMPKLTIVVVDTIPVELKSSYMVWSWFIYVLSANLLLVIPLLWVAAWWSLRPIEALAKEVRELEEHNRELLNPATTRELTSLVRNLNRLLKSERERYDKYRTTLTDLTHSLKTPLXXLQXXLRSLRSEKMSVSDAEPVMLEQISRISQQIGYYLHRASMRGGTLLSRELHPVAPLLDNLTSALNKVYQRKGVNISLDISPEISFVGEQNDFVEVMGNVLDNACKYCLEFVEISARQTDEHLYIVVEDDGPGIPLSKREVIFDRGQRVDTLRPGQGVGLAVAREITEQYEGKIVAGESMLGGARMEVIFGRQHSAPKDE
# Variants of: B1
# Assay: enrichment ratio after two sorts for PhoP signalling (ratio (wild type AVST 3.29)); higher = more functional
# Settings: with PhoP (E. coli)
row,Variant,enrichment ratio
1,PWMI,≤ 0.25
2,ANLD,≤ 0.25
3,KMMR,≤ 0.25
4,VDQS,≤ 0.25
5,IRHI,≤ 0.25
6,QMTM,≤ 0.25
7,FLYN,≤ 0.25
8,WKHL,≤ 0.25
9,KFKH,≤ 0.25
10,ESGS,≤ 0.25
11,SDIH,2.15
12,GPCM,≤ 0.25
13,PEQH,≤ 0.25
14,IEPQ,≤ 0.25
15,KRNN,≤ 0.25
16,ETCY,≤ 0.25
17,WNQR,≤ 0.25
18,RPFT,≤ 0.25
19,YYWE,≤ 0.25
20,IGPG,≤ 0.25
21,KYDN,≤ 0.25
22,MQCN,6.8
23,DSWS,≤ 0.25
24,NYDW,≤ 0.25

row,Variant,enrichment ratio
1,EHYT,≤ 0.25
2,FPRK,≤ 0.25
3,WQYE,≤ 0.25
4,NKFH,≤ 0.25
5,YWCY,≤ 0.25
6,TTQT,3.63
7,YQTG,≤ 0.25
8,TQNC,4.57
9,RKTR,≤ 0.25
10,TLIL,≤ 0.25
11,TYGM,≤ 0.25
12,PGAQ,≤ 0.25
13,YIAT,0.272
14,FISM,≤ 0.25
15,KTQT,≤ 0.25
16,CSFD,≤ 0.25
17,HGRE,≤ 0.25
18,LVVC,≤ 0.25
19,ELAK,≤ 0.25
20,NELD,≤ 0.25
21,KGEM,≤ 0.25
22,ELKD,≤ 0.25
23,RTEN,≤ 0.25
24,ASQN,≤ 0.25

row,Variant,enrichment ratio
1,WRPE,≤ 0.25
2,YVRG,≤ 0.25
3,FQRD,≤ 0.25
4,ARYL,≤ 0.25
5,ISSC,≤ 0.25
6,HERF,≤ 0.25
7,AAMT,≤ 0.25
8,TMSR,≤ 0.25
9,AVKW,≤ 0.25
10,FSFI,0.694
11,RWYS,≤ 0.25
12,RHWT,≤ 0.25
13,SVET,≤ 0.25
14,ETTC,≤ 0.25
15,RCYG,≤ 0.25
16,TMAR,4.26
17,KNNN,≤ 0.25
18,HVPE,≤ 0.25
19,PELK,≤ 0.25
20,PWMD,≤ 0.25
21,GSHC,≤ 0.25
22,SWYW,≤ 0.25
23,FHRF,≤ 0.25
24,YEGL,≤ 0.25

row,Variant,enrichment ratio
1,NDTY,≤ 0.25
2,QMYQ,7.96
3,LRQF,≤ 0.25
4,GSQS,≤ 0.25
5,DKYW,≤ 0.25
6,YQKY,≤ 0.25
7,PNMY,≤ 0.25
8,GIIF,≤ 0.25
9,WLTC,≤ 0.25
10,DCQA,≤ 0.25
11,SMND,≤ 0.25
12,MASI,6.62
13,QYEH,≤ 0.25
14,EDMQ,≤ 0.25
15,VAFD,≤ 0.25
16,GDQR,≤ 0.25
17,YRWL,≤ 0.25
18,SQCW,≤ 0.25
19,VLFS,≤ 0.25
20,GMVG,≤ 0.25
21,PYDL,≤ 0.25
22,IHWT,≤ 0.25
23,IWIK,≤ 0.25
24,FDCN,≤ 0.25

row,Variant,enrichment ratio
1,TLIS,≤ 0.25
2,ECFP,≤ 0.25
3,KLGY,≤ 0.25
4,IFIE,≤ 0.25
5,HIFS,≤ 0.25
6,LAEH,≤ 0.25
7,MTWL,10
8,RYCW,≤ 0.25
9,KQFG,≤ 0.25
10,TQLQ,5.05
11,KKYR,≤ 0.25
12,TCKV,≤ 0.25
13,DTTM,≤ 0.25
14,ANYF,≤ 0.25
15,MWAV,≤ 0.25
16,KRQF,≤ 0.25
17,QHWT,3.63
18,YDAW,≤ 0.25
19,EVNP,≤ 0.25
20,ECSP,≤ 0.25
21,TDDI,≤ 0.25
22,AEVG,6.84
23,DIDV,≤ 0.25
24,SNGR,≤ 0.25

row,Variant,enrichment ratio
1,YKFW,≤ 0.25
2,DLQG,≤ 0.25
3,WDQH,≤ 0.25
4,HLVH,≤ 0.25
5,DNMF,≤ 0.25
6,GLMA,≤ 0.25
7,RHMQ,≤ 0.25
8,PHGM,≤ 0.25
9,GRRC,≤ 0.25
10,DWHK,≤ 0.25
11,YELE,13.8
12,FDDA,≤ 0.25
13,HRML,≤ 0.25
14,SNNL,13.1
15,FVRQ,≤ 0.25
16,RMRR,≤ 0.25
17,IAWP,≤ 0.25
18,MCPD,≤ 0.25
19,NANY,≤ 0.25
20,ICKF,≤ 0.25
21,PSAE,≤ 0.25
22,RQTD,≤ 0.25
23,TDFQ,≤ 0.25
24,NADE,≤ 0.25

row,Variant,enrichment ratio
1,KTAT,≤ 0.25
2,AIIP,≤ 0.25
3,SNLD,4.91
4,YMDI,≤ 0.25
5,ALWD,≤ 0.25
6,IYET,≤ 0.25
7,PYCY,≤ 0.25
8,RTMP,≤ 0.25
9,HHMD,≤ 0.25
10,EKKP,≤ 0.25
11,ACNK,≤ 0.25
12,DYFQ,≤ 0.25
13,MMDS,≤ 0.25
14,SWKI,≤ 0.25
15,TLLD,0.36
16,MEKQ,≤ 0.25
17,HIYI,≤ 0.25
18,HWWN,≤ 0.25
19,SGID,≤ 0.25
20,KMWY,≤ 0.25
21,MAYG,1.2
22,NPFL,≤ 0.25
23,YNDS,≤ 0.25
24,WPTE,≤ 0.25

row,Variant,enrichment ratio
1,NQKM,≤ 0.25
2,IGDL,≤ 0.25
3,SIVM,2.21
4,YKHK,≤ 0.25
5,MVFS,≤ 0.25
6,PDNS,≤ 0.25
7,DPPL,≤ 0.25
8,SHLH,4.88
9,DREF,≤ 0.25
10,LFRS,≤ 0.25
11,FCAT,≤ 0.25
12,RNLR,≤ 0.25
13,YRCH,≤ 0.25
14,MAKP,≤ 0.25
15,NKPF,≤ 0.25
16,WDCV,≤ 0.25
17,GQTG,≤ 0.25
18,HSGG,≤ 0.25
19,TDWD,≤ 0.25
20,FMIY,≤ 0.25
21,LPDC,≤ 0.25
22,KNMP,≤ 0.25
23,PMCN,≤ 0.25
24,VVYA,≤ 0.25

row,Variant,enrichment ratio
1,QINT,≤ 0.25
2,FIPC,≤ 0.25
3,KGRQ,≤ 0.25
4,SCPT,≤ 0.25
5,TQMV,7.29
6,VEAI,≤ 0.25
7,LFRQ,≤ 0.25
8,CILD,≤ 0.25
9,HNPY,≤ 0.25
10,KLVL,≤ 0.25
11,QYGF,≤ 0.25
12,MYTT,≤ 0.25
13,HLKS,≤ 0.25
14,WLTF,≤ 0.25
15,LTVR,≤ 0.25
16,VFVG,≤ 0.25
17,ANMN,4.6
18,GRNG,≤ 0.25
19,LQHV,≤ 0.25
20,MGYC,1.77
21,KYFN,≤ 0.25
22,HYNS,≤ 0.25
23,YWAN,≤ 0.25
24,NSQQ,≤ 0.25

row,Variant,enrichment ratio
1,EAYY,≤ 0.25
2,GGNK,≤ 0.25
3,TFVC,≤ 0.25
4,MVSE,≤ 0.25
5,ACPE,≤ 0.25
6,APFE,≤ 0.25
7,FYNC,≤ 0.25
8,LGEP,≤ 0.25
9,MCEL,≤ 0.25
10,MPHY,≤ 0.25
11,RYGM,≤ 0.25
12,MRLL,≤ 0.25
13,RQNC,≤ 0.25
14,MLEY,≤ 0.25
15,NGSR,≤ 0.25
16,LDNN,≤ 0.25
17,IAMR,≤ 0.25
18,PQFA,≤ 0.25
19,YFQS,≤ 0.25
20,QSGE,2.88
21,GRAQ,≤ 0.25
22,FQDK,≤ 0.25
23,LRTC,≤ 0.25
24,LMKK,≤ 0.25

row,Variant,enrichment ratio
1,FCSW,≤ 0.25
2,NHAQ,≤ 0.25
3,TIRH,≤ 0.25
4,VNWP,≤ 0.25
5,IVAI,≤ 0.25
6,YDQG,≤ 0.25
7,MAKN,≤ 0.25
8,LHPT,≤ 0.25
9,GQMV,1.67
10,FWIC,≤ 0.25
11,WIWW,≤ 0.25
12,EPVP,≤ 0.25
13,YNVP,≤ 0.25
14,FGVM,5.75
15,AWTM,≤ 0.25
16,QYQR,≤ 0.25
17,PWHT,≤ 0.25
18,SMGV,2.38
19,FYTS,≤ 0.25
20,HARD,≤ 0.25
21,TTIN,≤ 0.25
22,DRWN,≤ 0.25
23,WPED,≤ 0.25
24,AAWM,≤ 0.25

row,Variant,enrichment ratio
1,VAEM,≤ 0.25
2,PPEQ,≤ 0.25
3,NWGF,≤ 0.25
4,VTCW,≤ 0.25
5,RDGG,≤ 0.25
6,AMPI,0.985
7,IVMS,≤ 0.25
8,LCHA,≤ 0.25
9,WLPC,≤ 0.25
10,IYSI,≤ 0.25
11,LPVA,≤ 0.25
12,NHLQ,≤ 0.25
13,HGEY,≤ 0.25
14,IWHA,≤ 0.25
15,FCAS,≤ 0.25
16,NPIF,≤ 0.25
17,PEPS,≤ 0.25
18,ACMY,≤ 0.25
19,HVSL,≤ 0.25
20,ATRY,≤ 0.25
21,DYTA,≤ 0.25
22,DHWK,≤ 0.25
23,ISVG,≤ 0.25
24,YPHP,≤ 0.25

row,Variant,enrichment ratio
1,LYRG,≤ 0.25
2,VIAA,≤ 0.25
3,WHCL,≤ 0.25
4,RHES,≤ 0.25
5,LHSA,≤ 0.25
6,ICMI,≤ 0.25
7,PHWD,≤ 0.25
8,KCNT,≤ 0.25
9,MFDF,≤ 0.25
10,PMAK,≤ 0.25
11,PWDR,≤ 0.25
12,WMLG,≤ 0.25
13,EFPD,≤ 0.25
14,YFGG,≤ 0.25
15,SCCY,5.42
16,AYAW,≤ 0.25
17,PETR,≤ 0.25
18,SCLF,8.98
